Data published in PubChem BioAssay AID1768 (National Center for Advancing Translational Sciences (NCATS), 2009).
In all, about 270,000 compounds went through this assay and about 620 (0.23%) were called active. This list was built around the results that the source calls inconclusive (neither active nor inactive); the mix of calls is not that of the screen. Calls come from the whole dose curve; as a rule, active = well fitted inhibition curve with a large enough effect in the polarisation, with a control signal flat (not every such curve was filed as active); inconclusive = small, poorly fitted or top-dose-only effect, or effect the other way, or a change in a side signal; inactive = no such curve, though single readings can be large or run the other way; the % refers to the polarisation. Where the call is inconclusive, the potency comes from a doubtful curve fit. A note “side channel” means that the fit belongs to a control or component signal, not to the main read-out.

What follows are molecules tested against Menin (Homo sapiens) (UniProt O00255) (assay: qHTS Assay for Inhibitors Targeting the Menin-MLL Interaction in MLL Related Leukemias: Competition With Texas Red Labeled MLL-derived Mutant Peptide). Conditions: fluorescence polarization; FP activity change, negative = inhibition: at 61.6 µM (top of the series).
Potency is the fitted concentration of half-maximal effect; tags give direction and shape of the fitted curve or compound fluorescence and quenching.
Throughout, for FP activity change, negative = inhibition: % of control where 0% means no effect.

Sequence of UniProt O00255 (O00255 whole entry, looked up): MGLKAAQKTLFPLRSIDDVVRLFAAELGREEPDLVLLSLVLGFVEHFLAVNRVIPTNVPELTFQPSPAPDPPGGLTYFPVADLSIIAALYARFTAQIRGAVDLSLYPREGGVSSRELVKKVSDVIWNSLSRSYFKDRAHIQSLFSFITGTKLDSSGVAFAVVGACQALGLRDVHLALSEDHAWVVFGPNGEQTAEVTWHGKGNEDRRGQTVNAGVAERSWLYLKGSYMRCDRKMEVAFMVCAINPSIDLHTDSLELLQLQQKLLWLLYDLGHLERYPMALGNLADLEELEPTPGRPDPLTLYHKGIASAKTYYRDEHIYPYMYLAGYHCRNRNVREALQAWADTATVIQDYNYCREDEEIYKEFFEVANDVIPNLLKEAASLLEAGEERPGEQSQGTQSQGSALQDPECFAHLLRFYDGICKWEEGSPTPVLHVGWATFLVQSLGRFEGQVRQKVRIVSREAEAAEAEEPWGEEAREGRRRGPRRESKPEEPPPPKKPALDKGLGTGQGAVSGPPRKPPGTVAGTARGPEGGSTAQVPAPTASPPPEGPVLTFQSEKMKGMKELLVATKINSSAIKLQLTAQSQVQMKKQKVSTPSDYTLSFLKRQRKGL

Compound	Potency	FP activity change, negative = inhibition
C/C(=N\NC(=O)C1(C)CC1(Br)Br)c1ccc([N+](=O)[O-])cc1 (stereo not drawn)	inconclusive: 25.1 µM [quencher, side channel, partial curve]	–
Nc1cccc(-c2cc(-c3ccccc3)nc(-c3cccc(N)c3)n2)c1	inconclusive: 2.82 µM [quencher, side channel, full curve]	–
Cc1cccc(NC(=O)NNC(=O)COc2ccc(Cl)cc2)c1	inconclusive: 39.8 µM [fluorescent, side channel, single point]	–
Cc1c2c(nc3c(C(=O)NC4CCCCC4C)cnn13)CCCC2 (stereo not drawn)	inconclusive: 25.1 µM [fluorescent, side channel, partial curve]	–
Cc1oc2c(cc(NS(=O)(=O)c3ccc(F)cc3)c3ccccc32)c1C(=O)O	inconclusive: 35.5 µM [quencher, side channel, partial curve]	–
COc1ccc(C(=O)/C=C/Nc2ccc(S(=O)(=O)Nc3cccc(C(C)=O)c3)cc2)cc1	inconclusive: 8.91 µM [quencher, side channel, full curve, poor fit]	–
CCCSc1cc(=O)n(-c2ccc(F)cc2)nc1C(=O)OCC	inconclusive: 35.5 µM [fluorescent, side channel, single point]	–
CN(CC(=O)NCc1ccc(F)cc1)Cc1ccc(Br)cc1	inconclusive: 39.8 µM [inhibitor, partial curve]	–
COC(=O)c1cc(OC)c(OC)cc1NC(=S)Nc1cc(Cl)ccc1OC	inconclusive: 11.2 µM [quencher, side channel, partial curve]	–
COc1ccccc1NC(=O)c1cc([N+](=O)[O-])ccc1NCCN1C(=O)CCC1=O	inconclusive: 39.8 µM [quencher, side channel, single point]	–
COC(=O)c1cc(=O)c(O)c2c(O)c(O)ccc2c1	inconclusive: 17.8 µM [quencher, side channel, partial curve]	–
COc1ccc(C(=O)Nc2nc(C)cc(C)n2)cc1	inconclusive: 39.8 µM [inhibitor, single point]	–
N#Cc1ccc2ccn(CC(=O)N3CCCc4ccccc43)c2c1	inconclusive: 39.8 µM [quencher, side channel, single point]	–
CCc1ccc(C(O)(c2ccccc2OC)C(CN2CCOCC2)c2ccccc2)cc1 (stereo not drawn)	inconclusive: 8.91 µM [fluorescent, side channel, partial curve]	–
CN(C)c1ccc(/C=N/NC(=S)NCc2ccccc2)cc1	inconclusive: 31.6 µM [quencher, side channel, partial curve]	–
COc1cccc(-c2nc(Nc3ccncc3)c3ccccc3n2)c1	inconclusive: 7.94 µM [quencher, side channel, partial curve]	–
CCCn1c(N2CCN(Cc3ccc(Cl)cc3)CC2)nc2ccccc21	inconclusive: 5.62 µM [fluorescent, side channel, partial curve]	–
COC(=O)/C=C/c1ccc(C(=O)NCC(=O)N[C@@H](CCC(=O)OC)C(=O)N[C@@H](CC(C)C)C(N)=O)cc1	inactive	–
CCCc1cc(=O)oc2c(CNc3ccc(OCC)cc3)c(O)ccc12	inconclusive: 17.8 µM [quencher, side channel, partial curve]	–
C=CC(C1=CC(=O)C(OC)=CC1=O)c1ccccc1 (stereo not drawn)	inconclusive: 20 µM [quencher, side channel, single point]	–

Compound	Potency	FP activity change, negative = inhibition
CCOC(=O)OCC1OC(C#Cc2ccccc2)C=CC1OC(=O)OCC (stereo not drawn)	–	inactive: -0.631% [at 11.7 µM]
NC(=O)c1ccsc1NC(=O)c1ccc(S(=O)(=O)N2CCCc3ccccc32)cc1	inconclusive: 3.98 µM [quencher, side channel, full curve]	–
CCC(O)C1CCN(Cc2cn(Cc3ccccc3)nc2-c2cc3ccccc3o2)CC1 (stereo not drawn)	inconclusive: 2.82 µM [fluorescent, side channel, full curve]	–
COc1cc(CNc2ccc3[nH]c(=O)[nH]c3c2)ccc1OCc1ccc(C)cc1	inconclusive: 25.1 µM [quencher, side channel, single point]	–
COc1ccc(-c2oc(NC(=O)CSc3nncn3C)c(C#N)c2-c2ccc(OC)cc2)cc1	inconclusive: 35.5 µM [quencher, side channel, single point]	–
CCn1cc(S(=O)(=O)CC(=O)Nc2cc(C)ccc2C)c2ccccc21	–	inactive: -4.37% [at 11.7 µM]
CCN(CC)S(=O)(=O)c1cccc(C(=O)Nc2ccccc2)c1	inconclusive: 39.8 µM [quencher, side channel, single point]	–
Cc1cn(CCOc2ccc(Cl)cc2)c(=O)[nH]c1=O	inactive	–
CCOc1ccc(OCc2ccc(C(=O)Nc3ccc(Cl)cn3)o2)cc1	inconclusive: 28.2 µM [quencher, side channel, single point]	–
CC[N+](CC)(CC)CCOc1ccc(/C=C\c2ccccc2)cc1	inactive	–
CCN(CCn1cccn1)C(=O)CC1C(=O)NCCN1Cc1cc(OC)cc(OC)c1 (stereo not drawn)	inconclusive: 28.2 µM [fluorescent, side channel, single point]	–
Cc1ccc(N(C(=O)Cc2cccs2)C(C(=O)NC2CCCCC2)c2ccccn2)cc1C (stereo not drawn)	inconclusive: 15.8 µM [fluorescent, side channel, partial curve]	–
Cc1ccccc1C(=O)Oc1ccc2ccc(O)cc2c1	inconclusive: 25.1 µM [quencher, side channel, single point]	–
Nc1ccc(C2CCCc3nonc32)c2nonc12 (stereo not drawn)	inconclusive: 10 µM [quencher, side channel, partial curve]	–
NNC(=O)c1sc2cc(C(F)(F)F)cnc2c1-c1cccnc1	inactive	–
C=CCn1c(NCc2cc(Cl)ccc2O)nc2ccccc21	inconclusive: 7.94 µM [quencher, side channel, partial curve]	–
CCN(CC)C(=O)CSc1nc(N)c(C#N)c(-c2cccs2)c1C#N	inactive	–
CC(=O)c1c(C)oc2ccc(NS(=O)(=O)c3ccccc3)cc12	inconclusive: 39.8 µM [inhibitor, single point]	–
CC(=O)c1c(C(C)=O)c(C)n(Cc2ccc(Cl)cc2)c1C	inconclusive: 3.98 µM [fluorescent, side channel, full curve]	–
CCc1ccccc1NC(=O)CSc1nc2n[nH]c(C)c2c(=N)n1-c1cccc(OC)c1	inactive	–

Compound	Potency	FP activity change, negative = inhibition
CC#CCN1c2ccccc2[C@]23C[C@@H](C(=O)OC)N(S(=O)(=O)c4ccc(C)cc4)C2=NC(C(=O)OC)=C(C(=O)OC)[C@H]13	–	inactive: -15.2% [at 11.7 µM]
N=c1c(S(=O)(=O)c2ccc(Cl)cc2)cc2c(=O)n3ccccc3nc2n1Cc1ccco1	inconclusive: 8.91 µM [quencher, side channel, partial curve]	–
COc1ccc(CNc2ccnc(-c3ccccc3OC)n2)c(OC)c1	inconclusive: 39.8 µM [inhibitor, single point]	–
CCOc1ccc(/C=N/Nc2nc(C)cs2)c(O)c1	inconclusive: 12.6 µM [quencher, side channel, partial curve]	–
CCC1=NN2C(=N)/C(=C\c3ccc(SCc4ccco4)o3)C(=O)N=C2S1	inconclusive: 31.6 µM [fluorescent, side channel, partial curve]	–
CCOc1cc(CNC2CCCC2)ccc1OCc1ccccc1Cl	inconclusive: 2.51 µM [fluorescent, side channel, partial curve, poor fit]	–
CCOC(=O)Cc1csc(NC(=O)/C=C\c2ccccc2Cl)n1	inconclusive: 35.5 µM [quencher, side channel, partial curve]	–
CC(C)=CCC/C(C)=C/Cc1c(O)ccc(C(=O)/C=C/c2ccc(O)cc2)c1O	inconclusive: 4.47 µM [quencher, side channel, full curve]	–
CCOc1ccc(/C=C2\SC(=S)NC2=O)cc1OC	inconclusive: 25.1 µM [quencher, single point]	–
CCn1c(/C(C#N)=N/O)nc2ccccc21	inactive	–
CCCCC(C(=O)O)C(C)CC(=O)NNC(=O)c1ccco1 (stereo not drawn)	inconclusive: 2.51 µM [fluorescent, side channel, full curve]	–
Cn1cccc1C(=O)N1CCC2(CCCN(c3ccccc3)C2)CC1	inconclusive: 28.2 µM [fluorescent, side channel, partial curve]	–
Cc1c(-c2ccccc2)nc(N)c(C#N)c1-c1cccs1	inconclusive: 39.8 µM [inhibitor, single point]	–
CC1(C)CC(=O)C=C(NCc2ccccc2)C1	inconclusive: 39.8 µM [inhibitor, single point]	–
O=C(CN1CCc2ccccc2C1)Nc1ccccc1C(F)(F)F	inconclusive: 7.08 µM [fluorescent, side channel, partial curve]	–
Cc1ccc(NC(C)C(=O)N/N=C/c2c[nH]c3ccccc23)cc1 (stereo not drawn)	inconclusive: 31.6 µM [quencher, side channel, single point]	–
COc1ccccc1/C=C1\SC(=S)N(CCC(=O)NNC(=O)c2ccccc2O)C1=O	inconclusive: 5.62 µM [quencher, side channel, partial curve]	–
COc1ccc(C(=O)N2CCc3cc(OC)c(OC)cc3C2c2ccc(OC)c(OC)c2)cc1 (stereo not drawn)	inconclusive: 1.78 µM [fluorescent, side channel, full curve, poor fit]	–
